One molecule from paper PMC11513070 can be followed below.

Residue numbers refer to the chain shown, from its start. These are yes or no findings as the source states them, for the method shown. In cells and extracts the contact can be indirect. Some entries that bind do so weakly or less than the wild type. Tags and fused reporters may be left off the sequences shown.

For assay [1], the target named is T1, SPP-3xFLAG (murine signal peptide peptidase) (mouse) (UniProt Q9D8V0).
T1 sequence (chain, N-glycosylated at N10 and N20): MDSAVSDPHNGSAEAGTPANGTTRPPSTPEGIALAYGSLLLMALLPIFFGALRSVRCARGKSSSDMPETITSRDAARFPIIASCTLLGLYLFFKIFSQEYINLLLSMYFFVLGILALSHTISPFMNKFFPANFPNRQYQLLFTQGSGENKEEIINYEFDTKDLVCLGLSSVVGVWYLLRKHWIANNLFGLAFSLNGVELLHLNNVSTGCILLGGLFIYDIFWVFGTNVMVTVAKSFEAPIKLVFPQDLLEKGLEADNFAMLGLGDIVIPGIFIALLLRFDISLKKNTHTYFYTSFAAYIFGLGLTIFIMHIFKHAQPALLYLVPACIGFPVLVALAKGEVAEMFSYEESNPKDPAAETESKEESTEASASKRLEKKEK
The assay is described as follows: co-IP; 3xFLAG-tagged SPP/SPPL protease precipitated with anti-FLAG beads from lysates of transiently transfected HEK293T cells; western blot for endogenous calnexin. (In western blotting, separated proteins are transferred to a membrane and probed.)

For assay [2], the target named is T2, SPPL2a-3xFLAG (UniProt Q9JJF9).
T2 sequence (chain, N-glycosylated in the N-terminus (sites not printed)): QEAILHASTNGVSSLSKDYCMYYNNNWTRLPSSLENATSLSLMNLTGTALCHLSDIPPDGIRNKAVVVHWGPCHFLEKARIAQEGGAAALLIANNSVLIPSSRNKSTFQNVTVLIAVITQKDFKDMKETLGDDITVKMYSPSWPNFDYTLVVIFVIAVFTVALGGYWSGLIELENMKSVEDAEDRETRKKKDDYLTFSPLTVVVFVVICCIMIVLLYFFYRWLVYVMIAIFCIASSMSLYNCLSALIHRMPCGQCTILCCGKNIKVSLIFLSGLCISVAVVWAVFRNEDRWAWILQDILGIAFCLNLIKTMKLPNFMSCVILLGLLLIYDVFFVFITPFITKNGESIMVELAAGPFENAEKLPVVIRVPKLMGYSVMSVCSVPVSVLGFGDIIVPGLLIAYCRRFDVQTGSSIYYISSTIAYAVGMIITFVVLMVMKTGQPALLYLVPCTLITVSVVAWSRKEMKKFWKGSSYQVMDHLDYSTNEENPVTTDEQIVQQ
The description is as above.

For assay [3], the target named is T3, SPPL2b-3xFLAG (UniProt Q3TD49).
T3 sequence (chain, N-glycosylated in the N-terminus (sites not printed)): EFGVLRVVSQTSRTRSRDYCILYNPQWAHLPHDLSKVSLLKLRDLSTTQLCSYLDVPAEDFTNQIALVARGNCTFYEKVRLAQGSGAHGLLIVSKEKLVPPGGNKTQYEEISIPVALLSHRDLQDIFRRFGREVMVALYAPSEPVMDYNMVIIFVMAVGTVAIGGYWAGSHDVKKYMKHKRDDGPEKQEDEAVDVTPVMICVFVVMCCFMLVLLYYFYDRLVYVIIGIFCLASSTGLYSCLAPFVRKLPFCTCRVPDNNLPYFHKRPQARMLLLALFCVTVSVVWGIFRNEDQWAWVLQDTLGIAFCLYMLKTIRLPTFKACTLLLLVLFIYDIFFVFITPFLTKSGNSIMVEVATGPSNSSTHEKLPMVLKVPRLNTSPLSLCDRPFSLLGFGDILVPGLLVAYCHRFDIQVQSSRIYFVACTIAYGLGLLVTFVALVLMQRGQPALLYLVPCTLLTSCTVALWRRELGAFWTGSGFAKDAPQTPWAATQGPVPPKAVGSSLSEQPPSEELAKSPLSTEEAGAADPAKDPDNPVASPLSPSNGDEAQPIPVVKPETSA
Described as above.

Assay [4] has as its target T4, SPPL2c-3xFLAG (mouse) (UniProt A2A6C4).
T4 sequence (chain, N-glycosylated at N106): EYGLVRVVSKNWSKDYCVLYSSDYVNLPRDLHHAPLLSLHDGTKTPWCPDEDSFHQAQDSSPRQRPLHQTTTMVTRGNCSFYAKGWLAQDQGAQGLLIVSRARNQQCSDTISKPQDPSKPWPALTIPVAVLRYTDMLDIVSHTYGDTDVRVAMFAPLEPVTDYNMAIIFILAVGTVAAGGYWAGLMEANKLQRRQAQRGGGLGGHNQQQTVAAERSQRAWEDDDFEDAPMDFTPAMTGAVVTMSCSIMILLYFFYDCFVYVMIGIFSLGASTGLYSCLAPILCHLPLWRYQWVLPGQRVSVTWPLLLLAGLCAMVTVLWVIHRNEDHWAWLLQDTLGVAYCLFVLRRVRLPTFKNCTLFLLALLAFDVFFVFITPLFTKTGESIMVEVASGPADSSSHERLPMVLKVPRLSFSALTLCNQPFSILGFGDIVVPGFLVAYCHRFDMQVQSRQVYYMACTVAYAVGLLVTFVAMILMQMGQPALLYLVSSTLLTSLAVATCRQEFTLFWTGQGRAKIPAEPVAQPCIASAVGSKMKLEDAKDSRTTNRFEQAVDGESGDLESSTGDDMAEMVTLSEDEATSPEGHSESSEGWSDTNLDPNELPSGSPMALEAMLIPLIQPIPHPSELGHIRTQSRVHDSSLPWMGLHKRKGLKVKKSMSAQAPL
The description is as above.

In assay [5] the target is T5, SPPL2c-myc (murine SPPL2c isoform A, wild type) (mouse) (UniProt A2A6C4).
T5 sequence (chain, N-glycosylated at N106): T4 sequence (chain, N-glycosylated at N106)
The assay is described as follows: co-IP; myc-tagged protease variant precipitated with anti-SPPL2c (C-terminus or 3B epitope) or anti-SPP sepharose beads from lysates (0.5% DDM) of transiently transfected HEK293T cells, overnight at 4 °C; western blot for endogenous calnexin.

Substrate in assay [6]: T6, SPP N10/20A-myc (murine, glycosylation-deficient) (mouse) (UniProt Q9D8V0)
T6 sequence: T1 sequence (chain, N-glycosylated at N10 and N20) with N10A, N20A
Described as above.

B1: calnexin, endogenous in HEK293T cells (protein, UniProt P27824 21-592)
chain: HDGHDDDVIDIEDDLDDVIEEVEDSKPDTTAPPSSPKVTYKAPVPTGEVYFADSFDRGTLSGWILSKAKKDDTDDEIAKYDGKWEVEEMKESKLPGDKGLVLMSRAKHHAISAKLNKPFLFDTKPLIVQYEVNFQNGIECGGAYVKLLSKTPELNLDQFHDKTPYTIMFGPDKCGEDYKLHFIFRHKNPKTGIYEEKHAKRPDADLKTYFTDKKTHLYTLILNPDNSFEILVDQSVVNSGNLLNDMTPPVNPSREIEDPEDRKPEDWDERPKIPDPEAVKPDDWDEDAPAKIPDEEATKPEGWLDDEPEYVPDPDAEKPEDWDEDMDGEWEAPQIANPRCESAPGCGVWQRPVIDNPNYKGKWKPPMIDNPSYQGIWKPRKIPNPDFFEDLEPFRMTPFSAIGLELWSMTSDIFFDNFIICADRRIVDDWANDGWGLKKAADGAAEPGVVGQMIEAAEERPWLWVVYILTVALPVFLVILFCCSGKKQTSGMEYKKTDAPQPDVKEEEEEKEEEKDKGDEEEEGEEKLEEKQKSDAEEDGGTVSQEEEDRKPKAEEDEILNRSPRNRKPRRE
In the case of B1, the binding entry in assay [1] is “binds”; in assay [2] it was “binds”; in assay [3], “binds”; in assay [4] it was “binds”; in assay [5] it was “binds”; in assay [6] it was “no binding”.
